Where a chain is given by its changes, count along the chain named. Some of the results follow.
B1: CAAGCAC (DNA:RNA)
RNA: GGGAGACCGGAAUUCAGAUUGUCCCAAGCACUUAAAUCCCGUCGUAGCCACCA
DNA 1: CAATCTGAATTCCGGTCTCCC
DNA 2: TGGTGGCTACGACGGGATT
B2: UCCGACG (DNA:RNA)
RNA: B1 RNA with C25U, A26C, A27C, C29A, A30C, C31G
DNA 1: CAATCTGAATTCCGGTCTCCC
DNA 2: TGGTGGCTACGACGGGATT
B3: UAUAUAC (DNA:RNA)
RNA: B1 RNA with C25U, A27U, G28A, C29U
DNA 1: CAATCTGAATTCCGGTCTCCC
DNA 2: TGGTGGCTACGACGGGATT
B4: GCGAUCC (DNA:RNA)
RNA: B1 RNA with C25G, A26C, A27G, G28A, C29U, A30C
DNA 1: CAATCTGAATTCCGGTCTCCC
DNA 2: TGGTGGCTACGACGGGATT
B5: GUUUCGG (DNA:RNA)
RNA: B1 RNA with C25G, A26U, A27U, G28U, A30G, C31G
DNA 1: CAATCTGAATTCCGGTCTCCC
DNA 2: TGGTGGCTACGACGGGATT
B6: AUUAGUC (DNA:RNA)
RNA: B1 RNA with C25A, A26U, A27U, G28A, C29G, A30U
DNA 1: CAATCTGAATTCCGGTCTCCC
DNA 2: TGGTGGCTACGACGGGATT
B7: CGAGCCA (DNA:RNA)
RNA: B1 RNA with A26G, A30C, C31A
DNA 1: CAATCTGAATTCCGGTCTCCC
DNA 2: TGGTGGCTACGACGGGATT
B8: UGCUCCU (DNA:RNA)
RNA: B1 RNA with C25U, A26G, A27C, G28U, A30C, C31U
DNA 1: CAATCTGAATTCCGGTCTCCC
DNA 2: TGGTGGCTACGACGGGATT
B9: AAUAGAC (DNA:RNA)
RNA: B1 RNA with C25A, A27U, G28A, C29G
DNA 1: CAATCTGAATTCCGGTCTCCC
DNA 2: TGGTGGCTACGACGGGATT
B10: CGUGUUU (DNA:RNA)
RNA: B1 RNA with A26G, A27U, C29U, A30U, C31U
DNA 1: CAATCTGAATTCCGGTCTCCC
DNA 2: TGGTGGCTACGACGGGATT
B11: ACGAUAC (DNA:RNA)
RNA: B1 RNA with C25A, A26C, A27G, G28A, C29U
DNA 1: CAATCTGAATTCCGGTCTCCC
DNA 2: TGGTGGCTACGACGGGATT
B12: GCGAAAC (DNA:RNA)
RNA: B1 RNA with C25G, A26C, A27G, G28A, C29A
DNA 1: CAATCTGAATTCCGGTCTCCC
DNA 2: TGGTGGCTACGACGGGATT
B13: UAACCUA (DNA:RNA)
RNA: B1 RNA with C25U, G28C, A30U, C31A
DNA 1: CAATCTGAATTCCGGTCTCCC
DNA 2: TGGTGGCTACGACGGGATT
B14: UAUGGUA (DNA:RNA)
RNA: B1 RNA with C25U, A27U, C29G, A30U, C31A
DNA 1: CAATCTGAATTCCGGTCTCCC
DNA 2: TGGTGGCTACGACGGGATT
B15: AGCGAGU (DNA:RNA)
RNA: B1 RNA with C25A, A26G, A27C, C29A, A30G, C31U
DNA 1: CAATCTGAATTCCGGTCTCCC
DNA 2: TGGTGGCTACGACGGGATT
B16: UUUCACA (DNA:RNA)
RNA: GGGAGACCGGAAUUCAGAUUGUCCUUUCACAUUAAAUCCCGUCGUAGCCACCA
DNA 1: CAATCTGAATTCCGGTCTCCC
DNA 2: TGGTGGCTACGACGGGATT
B17: UUUUGCG (DNA:RNA)
RNA: B16 RNA with C28U, A29G, A31G
DNA 1: CAATCTGAATTCCGGTCTCCC
DNA 2: TGGTGGCTACGACGGGATT
B18: UCGGAGA (DNA:RNA)
RNA: B16 RNA with U26C, U27G, C28G, C30G
DNA 1: CAATCTGAATTCCGGTCTCCC
DNA 2: TGGTGGCTACGACGGGATT
B19: UUUGGAG (DNA:RNA)
RNA: B16 RNA with C28G, A29G, C30A, A31G
DNA 1: CAATCTGAATTCCGGTCTCCC
DNA 2: TGGTGGCTACGACGGGATT
B20: AGGCUGC (DNA:RNA)
RNA: B1 RNA with C25A, A26G, A27G, G28C, C29U, A30G
DNA 1: CAATCTGAATTCCGGTCTCCC
DNA 2: TGGTGGCTACGACGGGATT

What follows are binders tested against T1, RBFOX1 RRM (Homo sapiens, UniProt Q9NWB1 109-208) (assay: EMSA; HiTS-Eq, 1 nM pool, 10 min; buffer printed only for the single-RNA assays: 10 mM Tris pH 7.5, 150 mM NaCl, 3.4 mM EDTA, 0.001% NP-40, 30 C). Settings: tags: His6 N-terminal (pET28a); label: 5' 32P.
T1 sequence: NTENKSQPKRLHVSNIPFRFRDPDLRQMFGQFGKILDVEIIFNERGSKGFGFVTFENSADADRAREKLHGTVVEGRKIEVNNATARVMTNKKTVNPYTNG
Outline: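 Purified wild-type or mutant RbFox RRM at increasing concentrations was equilibrated with 1 nM of 5′-radiolabelled RNA carrying 7 randomized nucleotides for 10 min in 50 µL. Unbound RNA was separated by 8% native PAGE and sequenced. Relative association constants came from read-count changes of each RNA species compared with the control reaction, normalised to the cognate motif.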

| Binder | binding signal |
| --- | --- |
| B1 | 0.00463 KA relative to UGCAUGU |
| B2 | 0.0114 KA relative to UGCAUGU |
| B3 | 0.00267 KA relative to UGCAUGU |
| B4 | 0.0139 KA relative to UGCAUGU |
| B5 | 0.0087 KA relative to UGCAUGU |
| B6 | 0.0112 KA relative to UGCAUGU |
| B7 | 0.007 KA relative to UGCAUGU |
| B8 | 0.0145 KA relative to UGCAUGU |
| B9 | 0.00275 KA relative to UGCAUGU |
| B10 | 0.015 KA relative to UGCAUGU |
| B11 | 0.00336 KA relative to UGCAUGU |
| B12 | 0.00995 KA relative to UGCAUGU |
| B13 | 0.000958 KA relative to UGCAUGU |
| B14 | 0.0122 KA relative to UGCAUGU |
| B15 | 0.015 KA relative to UGCAUGU |
| B16 | 0.000705 KA relative to UGCAUGU |
| B17 | 0.0222 KA relative to UGCAUGU |
| B18 | 0.00763 KA relative to UGCAUGU |
| B19 | 0.00451 KA relative to UGCAUGU |
| B20 | 0.0167 KA relative to UGCAUGU |

— PMC9911399, “Two distinct binding modes provide the RNA-binding protein RbFox with extraordinary sequence specificity”
